# Measurements reported in the supplement of paper PMC12632987.
# Whole data set: some 4,500 sequences, median “median log2 fold change of GCK-ALFA target abundance (FLAG IP / Myc IP barcode read proportion)” near 0.078, cut for the lowest 2% near -0.6. The list shows a part of the results.
# B1: GBRAP_52_6139 (protein)
# chain: MRERLRRLAEEIIELVKEGKLEEARELAERIARELNDEELRLFAEEFARVFRELRPEEVDYAAEALEILEEALEEAGRPEEIISYLLGESTRALYEVELR
# B2: GBRAP_184_5192 (protein)
# chain: KVLEYTLEANNLEELKEKMEELKKLAEKEKADLYLIAKLPEVTEEMIKALMDALKEIKEKGYSKNITVLLEGKLTEEQIDLALELADKAGVKLTIALDEE
# B3: GBRAP_128_3376 (protein)
# chain: VNEEFLEKVRKLVEEMLTSSVEEVAELTREIVDLLETASLEEQEAAVEIILEYIPKFSVEKLDAIADVLRERRKTASPELQELLAEVEVEALNEAEELEE
# B4: GBRAP_39_5701 (protein)
# chain: EEEEENEEVFSYTEAVGAGYMYETGISLEEAVEEAKEIFTEEAEKHPELKELFDRLIEVLENGDEETKIAVIGLAVLIKKGTPLEEIRELAEKLLAYFES
# B5: GBRAP_83_6951 (protein)
# chain: KEKIVVAANDDNVEEAVKIAEDLAKTGKYEVTLEFIGDVESARKLIEEVEKALKKGVKFDVEILLEGATEEEAEEIRREFEKVAKEAGADVKVEVHVIKP
# B6: GBRAP_11_2695 (protein)
# chain: KKEKLKEAAELAEELAKLLEELLEKGVDNEELLKKIEEKIEKLLKLTKEYGDEGLKKLAEILKELYEKALKDPENKEKYLEEALAAARVLEGQYLLEIEE
# B7: GBRAP_11_2923 (protein)
# chain: KKEKLKKIAELAEELAKILEKLIKEGVDNEELLKEAEKKLKELKELVEKYADEASKKLAKIAEELFEEALKDKENRLEYLKKALATVRVLSGQFLLELEE
# B8: GBRAP_128_3225 (protein)
# chain: STEELKEEVRKLLEAIKKANKEEAKKLAKELARLVASSSVEEAEAMLEVIEELAPEMSEEDLDILIDAFVEEARKLDSEVSLILLDAAIVFGEELLEKEE
# B9: GBRAP_160_4390 (protein)
# chain: SAAYEALAKEVTDILDEAIKLIEGESAEQRKVIVDVALGQIRLAAFSNDAVSDEDEDKIDAILDKGRAAIDKAIEKGLDAVVAEINKLRDELLAAIKALA
# B10: GBRAP_35_5614 (protein)
# chain: ETTELAVESFVDMAEAIIELIPEEDDETIAALANALIKYARSLLKEEKNNKEALEKIKEALEKLLKALKKHRSDNPLMQEVAKKVEEAIKEAKEAIAKVK
# B11: GBRAP_125_3102 (protein)
# chain: EEEELLEALRRLALALGFSEEEAEEAARLAREFSLRQTLIALLLAEGEEELAELVEKLTEEQAKEVLRRLAEYLEAHPDATREEVVAKLRELVEEALAAA
# B12: GBRAP_160_4210 (protein)
# chain: SELIEKIIKDIKEATEEVIKLIPEESREEVANFAAVEFGSVLMEAVDDGLENDEILDTIADAADEIVKTLLENKDASPEEVAKKLKEITEKAIKEIKKIA
# B13: GBRAP_52_6323 (protein)
# chain: AEARVRAYAAALVAAIRAGDDAGARALADRIVAELTPEEILRLAELVARAIAGEDDAVHERAAEVFEYLAERVIEEKGDERTAAEILGIYARTLYAAEQA
# B14: GBRAP_160_4250 (protein)
# chain: EERIKKLEKEITDEANVLLEALAESPKSAWPAFARAMAGDIVQIVIDDPNASDETIEKVDKLADELAARLVAAKDASPAELKALLDEGVKKIIEAVKKEI
# B15: GBRAP_137_3640 (protein)
# chain: MKVTIRVERHEDLVEITITVDDPEKAEEVAELITDLAVAHGALAISVEIKEDGTLEAVIWVPVERAEALIAAIVDALQSKFGATVTVEDLDTGEVRTYTP
# B16: GBRAP_160_4398 (protein)
# chain: EEEYKKLKEEVNEIFDETLELIEGESPEQRKVILRVSFGEVLLAAEENPAISDEGEEEIAKILDKYLEKGLAAVDEGLEAVVKVVNEAREEVLKKIEELA
# B17: GBRAP_184_5166 (protein)
# chain: MIKEFEIKIENVEEAKEKIEEIKKEVEGLKAELYVIVETKELTVEIAKAILEGLKEMKEKGYVTSITVEFTGKIDEETLDVAVKLADEAGVKLVIAIDEE
# B18: GBRAP_128_3260 (protein)
# chain: MNEEVVAYAKEVVEKIKNSNAEEAQKIADEFMEWLLNSSLEDAEQAVDVVISRLDELTAEQLDILADAARKHRPLASPEKAELLADLEVEALNRALEKEE
# B19: GBRAP_64_6478 (protein)
# chain: DPEIEELLEELLEEARRLLEHFRRENPELAPRAEEIVKLLEEAKTASIEERLDLVVEVADRLVELLRDPRVSPEGRDLLAEALDLAMALASLLFEKEMEE
# B20: GBRAP_160_4651 (protein)
# chain: SEEVEKLKEEIREIIEEALEMMKGESHEERIAVARVMTGDILLLLDENPLVSDEAREEVDKIGDKVVETLEENPDLSDEEIEELLEEALKEIEKVLEKYT
# B21: GBRAP_80_6784 (protein)
# chain: MEEELEEALAKLEEINKKTAEIVKEIVDLLKEAGASLEIILEIVKDFLDGKDLDEETLEKIAKETLEFAKELLAESEHLSIDDIGKLVLAEAATLIEEAE
# B22: GBRAP_184_5124 (protein)
# chain: TLVRASVEADDAEELIAAARAVVEAAAAAGARLDLHVFAKNLSVEEVIEVIRALGELRAAHPDVRVTLDVLDERNEEELDKLVKAADEAGVRLVVALKEE
# B23: GBRAP_160_4660 (protein)
# chain: SEEIEKLKEEIKEIIEEAKKMVEGESHEQRVAIARVMVGQIILEMEESEEISEEAVDEVDKIGRELVATLEANPDLSDEEVKALIEEMLEKILEVIDKHS
# B24: GBRAP_128_3237 (protein)
# chain: WDPAVKAEAEALIKTIVEGTEEEAAEATAKLVDLMSTVNLEEAEEIAEMLIKALEKLTAEKLDVVADTLRKNRGKLDPEKATLAYDVEIEALNLAEELEE
# B25: GBRAP_128_3495 (protein)
# chain: STEELVERTRELMRRIGEADAEEAARLTRELVELLASANEEEREAMVEVVRELLPELDAEKLDVVADTLEEEMPSLNPEVANLVADIRVEALNAAEEKEE
# B26: GBRAP_160_4108 (protein)
# chain: SAGAEAILADFREVFAEVLELWDEVSPEELVAYYEVETGSVIMDAMENYGLSDETADRLLDIRDEAAARLLAHGNVSREEVERILAEALARIEAAVAAAA
# B27: GBRAP_160_4821 (protein)
# chain: SESLEEALKLIEETAKEILELSKGESPEERAVIAAVEYGRLILELSEIPEVSDELEEEVDKIADEFVQEILDNPDITEEEFRELIERAKKEIEEAVKKHF
# B28: GBRAP_52_6150 (protein)
# chain: SEAEAKAYADRFIAAVKAGDRAKALAIMKEIAATMSEEEITLFMDHVAAQVATLTDEQKELVVELMIEFEDIAEAAGHDPDLLSYQLAVVAGAAYDAIQK
# B29: GBRAP_52_6250 (protein)
# chain: MEERMRELAERILELVKEGKYEEARELVREIAARLNEEELRLLIDELARLAEESRKEDIEAVWKAAEIIAEVLEEEGKPEILADYLESKVAAALVKVEEK
# Molecular target: GABARAP, O95166
# Test: median log2 fold change of GCK-ALFA target abundance (FLAG IP / Myc IP barcode read proportion) (log2 ratio); each designed protein is fused to an ALFA-tag nanobody in HEK293 cells to bring the named protein to FLAG-tagged glucokinase (GCK); Myc marks an untargeted standard; higher = target protein stabilised (more abundant)
# Settings: target protein: 3xFLAG-MCP-GCK-ALFA reporter; HEK293 landing pad (RPLP)
# Method in brief: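 Sequencing of reverse-transcribed, amplified circular RNA barcodes from anti-FLAG and anti-Myc immunoprecipitates provided the readout for an ALFA-nanobody-fused binder library recombined into HEK293 landing-pad cells. Those cells were induced with 2 μg mL^−1 doxycycline, transfected with a plasmid expressing a FLAG-tagged target and a Myc-tagged standard, and lysed after 48 h. Target abundance is the per-binder median log2 ratio of FLAG to Myc barcode read proportions. Only barcodes at a proportion of ≥10^−7 in both replicates and binders with ≥3 barcodes per replicate were kept, with a 10^−6 pseudocount added before the two replicates were pooled.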
# Chain of GABARAP, O95166 (O95166 whole entry, the tested form may be a part): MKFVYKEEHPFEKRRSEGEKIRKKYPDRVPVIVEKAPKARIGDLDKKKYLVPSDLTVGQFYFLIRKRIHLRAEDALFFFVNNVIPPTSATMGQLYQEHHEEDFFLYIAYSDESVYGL
row,Binder,median log2 fold change
1,B1,-0.0979
2,B2,0.127
3,B3,0.0671
4,B4,0.236
5,B5,0.235
6,B6,0.0661
7,B7,0.16
8,B8,-0.0542
9,B9,0.171
10,B10,0.0138
11,B11,-0.364
12,B12,-0.314
13,B13,0.156
14,B14,-0.183
15,B15,-0.0441
16,B16,0.0233
17,B17,0.0333
18,B18,0.278
19,B19,-0.525
20,B20,-0.0566
21,B21,0.182
22,B22,-0.0596
23,B23,0.165
24,B24,0.0017
25,B25,0.23
26,B26,-0.764
27,B27,-0.0527
28,B28,0.0147
29,B29,0.271
